We go through 55 compounds from ChEMBL document CHEMBL4888484, “Replenishing the malaria drug discovery pipeline: Screening and hit evaluation of the MMV Hit Generation Library 1 (HGL1) against asexual blood stage Plasmodium falciparum ,using a nano luciferase reporter read-out” (2022).

Screen size: about 150,000 compounds; about 540 (0.36%) showed an effect of 50% or more. Some of the results follow.

In the experiment the test system is Plasmodium falciparum. The experiment in a line: Primary screen in NF54 nanoGlo assay, in single point, at 2uM, 72h; a lower Z score goes with more inhibition. The following applies: timepoint 72 hour. The experiment is classed as functional, Erythrocyte.
The % Inhibition is the relative decrease from the control value, in per cent. Take `C[C@]1(O)CCN(C(=O)Cc2ccc3c(c2)OCO3)C[C@@H]1O`: the “% Inhibition” value was -1% and the Z score is 0.18.

Take `CN(C)c1ncc(CN2CCC(C)(C)S(=O)(=O)CC2)n1C`: the “% Inhibition” value is -20% and the Z score is listed as 1.65.

As for `COCc1nc(C)c(CNC(=O)c2ncoc2C(C)C)s1`, the “% Inhibition” value is given as -5% and the Z score is given as 0.48.

`CN(C)C(=NC[C@@H]1CC=CCC1)N(C)C`: the “% Inhibition” value is on record as -7% and the Z score turned out to be 0.75.

In the case of `O=C(c1cccc2ccccc12)N1CC(n2nccn2)C1`, the “% Inhibition” value is -6% and the Z score came out at 0.71.

On to `O=C(Nc1cccc(F)c1)N[C@@H](C1CCCC1)C(F)(F)F`, for which the “% Inhibition” value is listed as -7% and the Z score was found to be 1.06.

With `CCOCC(=O)N[C@@H](C)c1nnc(N)s1`, the “% Inhibition” value is listed as -10% and the Z score was 1.45.

`Cc1ccnc(CNC(=O)N2CCC[C@H](OCC3CC3)C2)c1`: the “% Inhibition” value is recorded as -5% and the Z score was determined as 0.66.

With `CCN1CCN(S(=O)(=O)c2c(C)sc(C)c2-c2cc(C)no2)CC1`, the “% Inhibition” value is on record as -11% and the Z score is 1.85.

Take `CN(C)C(=NCC(=O)Nc1ccccc1)N(C)C`: the “% Inhibition” value is given as -1% and the Z score is 0.2.

On to `Cc1nc(C2CC2)ncc1C(=O)N(CCc1ccccc1)C[C@H]1CCCN(C)C1`, for which the “% Inhibition” value came to 6% and the Z score is on record as -0.8.

Take `COc1ccc(NC(=O)CCC(=O)OC2CCC(C)C(C)C2)cc1` (stereo not given): the “% Inhibition” value is -12% and the Z score came out at 1.38.

With `CCn1nc(C)c(CN(CCc2ccccc2)C[C@H]2CCCN(C)C2)c1C`, the “% Inhibition” value amounted to 2% and the Z score is listed as -0.4.

Take `CCC(=O)Nc1ccc2c(c1)cc(C(=O)NCc1ccccc1)n2Cc1cccc(F)c1`: the “% Inhibition” value worked out at 1% and the Z score is reported as -0.1.

Turning to `O=C1c2ccccc2C(=O)N1c1nonc1N1C(=O)C2CCCCC2C1=O` (stereo not given), the “% Inhibition” value was 1% and the Z score is -0.11.

Turning to `CC(C)(C)OC(=O)N/N=C(/COc1ccccc1)NC1CC1`, the “% Inhibition” value is -15% and the Z score is reported as 1.69.

Turning to `CCCCn1c2ccccc2n2cc(-c3ccc4c(c3)OCO4)nc12`, the “% Inhibition” value was -9% and the Z score stood at 0.78.

Consider `CCN(CC)C(=O)Cn1cc(C(=O)NCCc2ccncc2)nn1`, for which the “% Inhibition” value is 7% and the Z score is given as -1.33.

With `Cc1c(-c2ccccc2)nn(C)c1NC(=O)N1CCC(F)(F)CC1`, the “% Inhibition” value is on record as -18% and the Z score turned out to be 1.81.

For the compound `Cc1ccccc1CCC(=O)N1CC(n2ccnn2)C1`, the “% Inhibition” value came out at 5% and the Z score was -0.57.

Consider `N#Cc1ccccc1CO[C@]1(C(=O)NC2CC2)CC(OCc2ccccc2F)[C@H](O)[C@H](O)C1` (stereo not given in full), for which the “% Inhibition” value is reported as -1% and the Z score came out at 0.12.

With `OCC1([C@H](NCc2ncccc2Cl)c2ccccc2)CC=CC1`, the “% Inhibition” value worked out at 0% and the Z score is -0.04.

With `Oc1ccc2ccccc2c1-c1nc([C@H]2CCOC2)no1`, the “% Inhibition” value is 7% and the Z score was -0.99.

For the compound `O=C(c1cnn2c(C(F)(F)F)cc(-c3ccco3)nc12)N1CCC[C@H]1c1ccccc1F`, the “% Inhibition” value is -6% and the Z score is recorded as 1.17.

`CN(CCc1ccccn1)c1ncccc1CNc1ncccc1C#N`: the “% Inhibition” value amounted to 0% and the Z score is given as 0.

For the compound `CCOc1ccc(-c2c[nH]c(-c3ccc(S(C)(=O)=O)cc3)n2)cc1`, the “% Inhibition” value is listed as -7% and the Z score turned out to be 0.95.

For the compound `CCC(NC(=O)N1CCOC(c2ccsc2)C1)c1cccs1` (stereo not given), the “% Inhibition” value is recorded as -3% and the Z score came out at 0.38.

Regarding `COc1ccccc1N1CCN(C(=O)c2ncn(-c3ccc(C)cc3)n2)CC1`, the “% Inhibition” value is on record as -7% and the Z score is on record as 0.66.

Turning to `COC(=O)c1cc(-c2cccnc2)nc2c1c(C)nn2CCC#N`, the “% Inhibition” value was -1% and the Z score was found to be 0.13.

Turning to `CCS(=O)(=O)CCNC(=O)c1cnc(C)s1`, the “% Inhibition” value is on record as -2% and the Z score came to 0.19.

For `CN1CC2(CCN(c3nccnc3N(C)C)CC2)C[C@@H](c2ccccc2)C1=O`, the “% Inhibition” value is -3% and the Z score is listed as 0.38.

On to `Cc1nc[nH]c1CN1C[C@H]2CC[C@@H](C1)N(Cc1ccc(-c3cc[nH]n3)o1)C2`, for which the “% Inhibition” value was -10% and the Z score stood at 1.66.

`O=C1NC[C@H]2O[C@H](CCOc3ccccc3C(=O)N3CCN(C4COC4)C[C@@H]13)CC[C@H]2n1cc(CN2CCOCC2)nn1`: the “% Inhibition” value is -1% and the Z score is recorded as 0.18.

For `CC[C@@H]1Oc2ccc(S(=O)(=O)N3CCN(C(=O)c4ccc(F)c(F)c4)CC3)cc2NC1=O`, the “% Inhibition” value was -9% and the Z score was 0.86.

For `C[C@H](NCc1nccc(N)n1)c1cc2ccccc2o1`, the “% Inhibition” value is recorded as -6% and the Z score is on record as 0.65.

In the case of `Fc1cccc2nc(NCCc3nnc(C4CCOCC4)[nH]3)oc12`, the “% Inhibition” value is reported as -11% and the Z score was determined as 1.08.

`Cc1cc(-n2cncn2)ccc1C(=O)N1CCC2CN(C(=O)OC(C)(C)C)CC2C1` (stereo not given): the “% Inhibition” value was -17% and the Z score came out at 1.94.

For `COc1ccccc1Nc1ncnc2sc(C)c(S(=O)(=O)N3CCCCC3)c12`, the “% Inhibition” value is -5% and the Z score was determined as 0.91.

For the compound `COc1ccc(OC)c(S(=O)(=O)N2CCOCCNC(=O)[C@H]3CCCC[C@H]32)c1`, the “% Inhibition” value is given as 2% and the Z score is listed as -0.29.

`Cc1c(N2CCOCC2)c(C)n(Cc2ccc(F)c(F)c2)c1C(=O)NC(C)(C)C`: the “% Inhibition” value is -5% and the Z score came out at 0.54.

On to `COC(C)c1nc(CN2CCCC2C(O)C(F)(F)F)cs1` (stereo not given), for which the “% Inhibition” value is -5% and the Z score is listed as 0.44.

Regarding `CCC(=O)NCc1nc2c(n1C)CN(S(=O)(=O)c1cccc(F)c1)CC2`, the “% Inhibition” value is -9% and the Z score came out at 1.03.

On to `CC(=O)c1ccc(Oc2nc(-c3ccccc3)cc(-c3ccccc3)n2)cc1`, for which the “% Inhibition” value is recorded as -3% and the Z score worked out at 0.47.

For the compound `CCc1cc(OC)ccc1CN(C)[C@H]1C[C@@H](OC)C1`, the “% Inhibition” value was -5% and the Z score is given as 1.01.

Take `Cc1noc(C)c1COc1cccc[n+]1[O-]`: the “% Inhibition” value is on record as 7% and the Z score is -0.74.

Consider `OCc1ccc(-c2nc(C3CC3)nn2-c2ccc(F)cc2F)o1`, for which the “% Inhibition” value was -6% and the Z score is reported as 1.18.

For the compound `CC(C)CC(CNC1CC2CC1C1CCCC21)C(=O)O` (stereo not given), the “% Inhibition” value is on record as -3% and the Z score is reported as 0.3.

With `NS(=O)(=O)Cc1cccc(Cl)c1`, the “% Inhibition” value is listed as -21% and the Z score is reported as 2.7.

Turning to `Cc1cnccc1NC(=O)N1CCC[C@H](c2cc(F)ccc2F)C1`, the “% Inhibition” value is -14% and the Z score is on record as 2.66.

Turning to `CCC(CNS(C)(=O)=O)NC(=O)N1CCCC(C2CCCCC2)C1` (stereo not given), the “% Inhibition” value is on record as 5% and the Z score is reported as -0.74.

As for `O=C(NC1CCCC(CO)C1)C(O)C1CCC1` (stereo not given), the “% Inhibition” value is -9% and the Z score is listed as 1.64.

For the compound `c1csc(C2CCCN2c2nnc(C3CCOC3)n2CC2CCCO2)c1` (stereo not given), the “% Inhibition” value was -3% and the Z score is listed as 0.43.

Consider `COc1ccccc1CC(=O)NCc1nnc(N)s1`, for which the “% Inhibition” value turned out to be 5% and the Z score is -0.69.

As to `CC(C)=CC1C(C(=O)N2CC(O)C2)C1(C)C` (stereo not given), the “% Inhibition” value is reported as -9% and the Z score came out at 1.63.

With `O=C(c1ccc(Cl)cn1)N1CCC(Cn2ccnc2)CC1`, the “% Inhibition” value is listed as -18% and the Z score is on record as 1.77.
